# According to PubChem BioAssay (NCI):
#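 Five concentrations, 48 hours, 96-well plates. GI50 is the concentration that inhibits growth by half. TGI marks complete inhibition of growth.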
# System: NCI-H322M lung
# Test: growth of human tumour cells (NCI), 48 h
SMILES,TGI,GI50
O=C1N2CCc3c([nH]c4ccccc34)C23CC2CCCCC12S3 (stereo unspecified),> 100 µM,–
CC1(C)CC23CC(C)(C)c4cccc(c42)OCc2ccc4ccc5ccc(nc5c4n2)COc2cccc1c23,> 50 µM,–
Cc1ccc(NC(=O)C(=O)CC(=O)C2CCOC2=O)c(C)c1 (stereo unspecified),> 100 µM,–
C=C(C)CC1(O)C(=O)C(OCC)=C1OCC (stereo unspecified),> 100 µM,–
[N-]=[N+]=Nc1c(C=O)c(=O)n(-c2ccccc2)c2ccccc12,> 100 µM,–
O=C(CC1(O)C(=O)Nc2ccccc21)c1ccco1 (stereo unspecified),> 100 µM,–
O=[N+]([O-])c1ccc(/C=N/Nc2nnc3c4ccccc4c4ncccc4c3n2)o1,> 10 µM,–
CCN1C[C@]2(C)CC[C@H](OC)C34C1C([C@H](OC(C)=O)[C@@H]32)[C@@]1(OC)C[C@H](OC)[C@H]2C[C@@H]4[C@@H]1[C@H]2O,> 100 µM,–
OC[C@]1(n2nc3ccccc3n2)OC[C@@H]1c1ccccc1,> 100 µM,–
CCCCSC1=N/C(=C\c2ccc(N(C)C)cc2)C(NN)=N1,> 100 µM,–
O=C(C[n+]1ccccc1)N/N=C(\Cc1nc2ccc([N+](=O)[O-])cc2[nH]c1=O)C(=O)Nc1cc(Cl)c(Cl)cc1Cl,> 100 µM,–
O=c1c(O)cccc2cc(O)c(O)c(O)c12,> 100 µM,6.52 µM
N#CC(=C1CCCCC1)c1nc2ccccc2o1,> 100 µM,–
COC(=O)c1c(O)c([N+](=O)[O-])cc2c1c1c(n2Cc2ccccc2)C(=O)c2ccccc2C1=O,> 100 µM,26.6 µM
COc1ccc(C2Oc3cc(OC)c(O)c(C)c3[C@H]2C)cc1 (stereo partly specified),> 100 µM,–
CN1C(=O)[C@@H](NC(=O)[C@H](CCC(F)(F)F)[C@H](CCC(F)(F)F)C(N)=O)N=C(c2ccccc2)c2ccccc21,> 100 µM,> 100 µM
COc1ccc(Cc2cc3c(cc2OCC(=O)O)OCO3)cc1,> 100 µM,–
CCCCCCCCCCCCCCCC[N+](C)(CCO)Cc1cnc[nH]1 (stereo unspecified),33.2 µM,3.18 µM
O=C(Nc1c(C(F)(F)F)cc(-c2ccccc2)[nH]c1=O)N1CCOCC1,> 100 µM,–
CCN(CC)C(=S)SS(=O)(=O)c1ccc(Cl)cc1,> 100 µM,–
COC(=O)NC1(NC(=O)OC)NC(=O)c2cc(OC)c(OC)c(OC)c2N1,> 100 µM,–
C#CCN(N=O)C(=O)NC(CCCNC(=O)OCc1ccccc1)C(=O)OCc1ccccc1 (stereo unspecified),> 100 µM,–
N#CC(C#N)=C(N)/C(C#N)=C/c1ccc2ccccc2n1,> 100 µM,–
O/N=C1/C(=C/c2ccc(Oc3ccccc3)cc2)CCCC1C(NO)c1ccc(Oc2ccccc2)cc1 (stereo unspecified),> 100 µM,–
NC(=O)c1coc(C2OC(CO)C(O)C2O)n1 (stereo unspecified),> 100 µM,–

SMILES,TGI,GI50
O=C(Cc1csc(-c2nc(CC(=O)NNc3ccccc3)cs2)n1)NNc1ccccc1,> 100 µM,–
CC(C)(C)OC(=O)N(O)CCCn1cnc2c(N)ncnc21,> 100 µM,–
CCN(CC)CCCC(C)Nc1ccnc2ccc3nn(C)nc3c12 (stereo unspecified),> 100 µM,–
CC1(C)OB(O)OC1(C)C,> 100 µM,–
Cn1c(-c2cccs2)cc(-c2cccs2)c1-c1ccco1,> 100 µM,–
CS(=O)(=O)CCNCc1ccc(-c2ccc3ncnc(Nc4ccc(OCc5cccc(F)c5)c(C(F)(F)F)c4)c3c2)o1,15.6 µM,4.59 µM
O=C(/C=C/C=C/c1c(C2CC2)nc2ccccc2c1-c1ccc(F)cc1)c1cccs1,> 100 µM,3.76 µM
Fc1ccc(-c2ncn(C3CCNCC3)c2-c2ccnc(Oc3ccc(F)c(F)c3)n2)cc1,> 25 µM,24.7 µM
Cc1nc(CN2CCCCC2)c(O)c(=O)[nH]1,> 100 µM,–
Clc1ccc(C2=Nn3c(nnc3-c3cc(Cl)cc(Cl)c3Cl)SC2)cc1,> 100 µM,82.8 µM
COc1cc(Nc2ncc(F)c(Nc3ccc4c(n3)NC(=O)C(C)(C)O4)n2)cc(OC)c1OC,> 10 µM,5.85 µM
CCCC(=O)O[C@H]1C=C2C[C@@]34SS[C@]5(CC6=C[C@H](OC(C)=O)[C@@H]7O[C@@H]7[C@H]6N5C3=O)C(=O)N4[C@@H]2[C@H]2O[C@H]21,0.519 µM,–
O=C(N/N=C/c1ccc([N+](=O)[O-])o1)c1ccc(C(=O)N/N=C/c2ccc([N+](=O)[O-])o2)cc1,> 100 µM,–
O=C(Nc1cccc(Cc2cccc(NC(=O)c3ccccc3)c2)c1)c1ccccc1,> 100 µM,–
O=c1[nH]c2cc([N+](=O)[O-])ccc2nc1/C(=N/Nc1ccccc1)C(O)c1ccc(C(O)/C(=N\Nc2ccccc2)c2cnc3cc([N+](=O)[O-])ccc3n2)cc1 (stereo unspecified),> 100 µM,–
CCOC(=O)c1sc(N/N=C2\NC(=O)/C(=C/c3ccc([N+](=O)[O-])cc3)S2)nc1C,> 100 µM,–
O=C(O)CNc1ccc(C(=O)O)cc1,> 100 µM,–
CC(C)CCC[C@@H](C)C1CCC2[C@@H]3CC=C4C[C@@H](C(=O)NCC[N+](C)(C)CCCS(=O)(=O)[O-])CC[C@]4(C)C3CC[C@@]21C (stereo partly specified),30.4 µM,–
O=[N+]([O-])c1ccccc1NC1c2ccccc2Oc2ccccc21,> 100 µM,> 100 µM
C/C=C\C(CC(=O)NCCC1CN(S(=O)(=O)C(F)(F)F)c2ccccc21)CC(=O)OC (stereo unspecified),> 100 µM,–
O=C(O)c1cc2ccccc2oc1=O,> 100 µM,–
CC(C)C1CC2C(=O)N(c3ccccc3)C(=O)C2c2[nH]c3ccccc3c21 (stereo unspecified),> 100 µM,–
CCN(CC)CCCNc1ncc(C)c2[nH]c3ccncc3c12,27.3 µM,–
CCN(CC)CCCn1c(=O)c2ccccc2n2c3c(=O)n(C)c(=O)n(C)c3nc12,21.9 µM,–
CCn1cc(-c2ccnc3[nH]ccc23)c(-c2cccc(NC(=O)Nc3ccc(OCc4ccccc4)cc3)c2)n1,> 25 µM,> 15.7 µM
